pIC50: −log10 of the molar value. Lines with a small IC50 respond at low doses; a limit (>, <) means that the fit lies beyond the doses tested. For AUC the same curve is integrated over the 256-fold range of doses and scaled to a fraction; values near 1 show little effect. Any top dose called inferred comes from the curve model; the source does not state it.
Compound: Cc1ccc(-c2c(C(=O)CF)n(CCCO)c3ncnc(N)c23)cc1 [FMK]
Experiment: Viability of human cancer cell lines after 72 h of drug (GDSC screen)
Conditions: top dose inferred
Experimental: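 Human cancer cell lines in 384-well plates, medium with 10% serum, drug for 72 h over a 256-fold dose range (nine 2-fold or five 4-fold steps up to the top dose). Adherent lines were fixed and stained with the nucleic acid dye Syto60, suspension lines read with resazurin; signal relative to control wells, capped at 0 and 100%. One two-parameter sigmoid per drug and line, fitted in a mixed model over all curves with the slope shared within a line.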

Work on “GMS-10 (glioma, adherent, top dose 20 µM)” yielded an AUC of 0.983 and a pIC50 of under 4.70.

For “GP5d (large intestine, adherent, top dose 20 µM)”, the AUC was 0.986 and the pIC50 was under 4.70.

“GR-ST (lymphoblastic leukaemia, suspension, top dose 20 µM)” gave an AUC of 0.963 and a pIC50 of under 4.70.

“GRANTA-519 (B-cell lymphoma, suspension, top dose 20 µM)” showed an AUC of 0.991 and a pIC50 of under 4.70.

“GT3TKB (stomach, adherent, top dose 20 µM)” gave an AUC of 0.99 and a pIC50 of under 4.70.

Work on H4 (glioma, adherent, top dose 20 µM) yielded an AUC of 0.98 and a pIC50 of under 4.70.

In the case of “H9 (lymphoid neoplasm, suspension, top dose 20 µM)”, the AUC was 0.968 and the pIC50 was under 4.70.

“H2369 (mesothelioma, adherent, top dose 20 µM)” gave an AUC of 0.979 and a pIC50 of under 4.70.

With “H2373 (mesothelioma, adherent, top dose 20 µM)” the AUC was 0.98 and the pIC50 was under 4.70.

Cell Line “H2461 (mesothelioma, adherent, top dose 20 µM)” has an AUC of 0.975 and a pIC50 of under 4.70.

For “H2731 (mesothelioma, adherent, top dose 20 µM)”, the AUC was 0.984 and the pIC50 was under 4.70.

“H2795 (mesothelioma, adherent, top dose 10.24 µM)” showed an AUC of 0.982 and a pIC50 of under 4.99.

“H2818 (mesothelioma, adherent, top dose 10.24 µM)” was tested, and the AUC was 0.988 and the pIC50 was under 4.99.

In the case of “H3118 (head and neck, adherent, top dose 20 µM)”, the AUC was 0.933 and the pIC50 was under 4.70.

Work on “H3255 (lung adenocarcinoma, adherent, top dose 20 µM)” yielded an AUC of 0.981 and a pIC50 of under 4.70.

Work on “HA7-RCC (kidney, adherent, top dose 20 µM)” yielded an AUC of 0.983 and a pIC50 of under 4.70.

Work on “HAL-01 (lymphoblastic leukaemia, suspension, top dose 20 µM)” yielded an AUC of 0.961 and a pIC50 of under 4.70.

Work on “HARA (lung squamous cell carcinoma, adherent, top dose 20 µM)” yielded an AUC of 0.967 and a pIC50 of under 4.70.

In the case of “HC-1 (hairy cell leukaemia, suspension, top dose 20 µM)”, the AUC was 0.951 and the pIC50 was under 4.70.

In the case of “HCC38 (breast, adherent, top dose 20 µM)”, the AUC was 0.968 and the pIC50 was under 4.70.

For “HCC70 (breast, adherent, top dose 20 µM)”, the AUC was 0.988 and the pIC50 was under 4.70.

Cell Line “HCC202 (breast, adherent, top dose 20 µM)” has an AUC of 0.959 and a pIC50 of under 4.70.

Work on “HCC1143 (breast, adherent, top dose 20 µM)” yielded an AUC of 0.955 and a pIC50 of under 4.70.

“HCC1187 (breast, suspension, top dose 20 µM)” was tested, and the AUC was 0.982 and the pIC50 was under 4.70.

“HCC1395 (breast, adherent, top dose 20 µM)” gave an AUC of 0.979 and a pIC50 of under 4.70.

With “HCC1419 (breast, adherent, top dose 20 µM)” the AUC was 0.966 and the pIC50 was under 4.70.

In the case of “HCC1428 (breast, adherent, top dose 20 µM)”, the AUC was 0.986 and the pIC50 was under 4.70.

Work on “HCC1500 (breast, adherent, top dose 10.24 µM)” yielded an AUC of 0.988 and a pIC50 of under 4.99.

In the case of “HCC1569 (breast, adherent, top dose 20 µM)”, the AUC was 0.967 and the pIC50 was under 4.70.

Cell Line “HCC1599 (breast, suspension, top dose 20 µM)” has an AUC of 0.981 and a pIC50 of under 4.70.

Cell Line “HCC1806 (breast, adherent, top dose 20 µM)” has an AUC of 0.989 and a pIC50 of under 4.70.

Work on “HCC1937 (breast, adherent, top dose 20 µM)” yielded an AUC of 0.982 and a pIC50 of under 4.70.

“HCC1954 (breast, adherent, top dose 20 µM)” gave an AUC of 0.945 and a pIC50 of under 4.70.

“HCC2157 (breast, suspension, top dose 20 µM)” showed an AUC of 0.987 and a pIC50 of under 4.70.

In the case of “HCC2218 (breast, suspension, top dose 20 µM)”, the AUC was 0.972 and the pIC50 was under 4.70.

In the case of “HCC2998 (large intestine, adherent, top dose 20 µM)”, the AUC was 0.987 and the pIC50 was under 4.70.

“HCC-15 (lung squamous cell carcinoma, adherent, top dose 20 µM)” showed an AUC of 0.966 and a pIC50 of under 4.70.

With “HCC-33 (small cell lung carcinoma, adherent, top dose 20 µM)” the AUC was 0.966 and the pIC50 was under 4.70.

“HCC-44 (lung adenocarcinoma, adherent, top dose 20 µM)” showed an AUC of 0.975 and a pIC50 of under 4.70.

“HCC-56 (large intestine, adherent, top dose 20 µM)” gave an AUC of 0.979 and a pIC50 of under 4.70.

“HCC-78 (lung adenocarcinoma, adherent, top dose 20 µM)” showed an AUC of 0.979 and a pIC50 of under 4.70.

For “HCC-827 (lung adenocarcinoma, adherent, top dose 20 µM)”, the AUC was 0.985 and the pIC50 was under 4.70.

In the case of “HCE-4 (oesophagus, adherent, top dose 20 µM)”, the AUC was 0.989 and the pIC50 was under 4.70.

“HCT-15 (large intestine, adherent, top dose 20 µM)” was tested, and the AUC was 0.978 and the pIC50 was under 4.70.

With “HCT-116 (large intestine, adherent, top dose 20 µM)” the AUC was 0.978 and the pIC50 was under 4.70.

In the case of “HD-MY-Z (Hodgkin lymphoma, adherent, top dose 20 µM)”, the AUC was 0.976 and the pIC50 was under 4.70.

“HDLM-2 (Hodgkin lymphoma, suspension, top dose 20 µM)” was tested, and the AUC was 0.966 and the pIC50 was under 4.70.

In the case of “HDQ-P1 (breast, adherent, top dose 20 µM)”, the AUC was 0.979 and the pIC50 was under 4.70.

“HEC-1 (endometrium, adherent, top dose 20 µM)” gave an AUC of 0.989 and a pIC50 of under 4.70.

“HEL (acute myeloid leukaemia, semi-adherent, top dose 20 µM)” showed an AUC of 0.989 and a pIC50 of under 4.70.

With “HGC-27 (stomach, adherent, top dose 20 µM)” the AUC was 0.99 and the pIC50 was under 4.70.

Cell Line “HH (T-cell leukaemia, suspension, top dose 20 µM)” has an AUC of 0.959 and a pIC50 of under 4.70.

“HL-60 (acute myeloid leukaemia, suspension, top dose 20 µM)” showed an AUC of 0.977 and a pIC50 of under 4.70.

With HLE (liver, adherent, top dose 20 µM) the AUC was 0.989 and the pIC50 was under 4.70.

Cell Line “HMV-II (melanoma, adherent, top dose 20 µM)” has an AUC of 0.933 and a pIC50 of under 4.70.

For “HN (head and neck, adherent, top dose 20 µM)”, the AUC was 0.987 and the pIC50 was under 4.70.

For “HO-1-N-1 (head and neck, adherent, top dose 20 µM)”, the AUC was 0.986 and the pIC50 was under 4.70.

“HO-1-u-1 (head and neck, adherent, top dose 20 µM)” showed an AUC of 0.983 and a pIC50 of under 4.70.

“HOP-62 (lung adenocarcinoma, adherent, top dose 20 µM)” was tested, and the AUC was 0.982 and the pIC50 was under 4.70.

For “HOP-92 (large cell lung carcinoma, adherent, top dose 10.24 µM)”, the AUC was 0.981 and the pIC50 was under 4.99.

In the case of “HOS (osteosarcoma, adherent, top dose 20 µM)”, the AUC was 0.99 and the pIC50 was under 4.70.

“HPAC (pancreas, adherent, top dose 20 µM)” gave an AUC of 0.951 and a pIC50 of under 4.70.

Work on “HPAF-II (pancreas, adherent, top dose 20 µM)” yielded an AUC of 0.948 and a pIC50 of under 4.70.

For “HSC-2 (head and neck, adherent, top dose 20 µM)”, the AUC was 0.986 and the pIC50 was under 4.70.

With “HSC-3 (head and neck, adherent, top dose 20 µM)” the AUC was 0.989 and the pIC50 was under 4.70.

With “HSC-4 (head and neck, adherent, top dose 10.24 µM)” the AUC was 0.968 and the pIC50 was under 4.99.

Cell Line “HT55 (large intestine, adherent, top dose 20 µM)” has an AUC of 0.99 and a pIC50 of under 4.70.

“HT (B-cell lymphoma, suspension, top dose 20 µM)” was tested, and the AUC was 0.99 and the pIC50 was under 4.70.

HT-3 (cervix, adherent, top dose 20 µM) was tested, and the AUC was 0.985 and the pIC50 was under 4.70.

“HT-29 (large intestine, adherent, top dose 20 µM)” gave an AUC of 0.981 and a pIC50 of under 4.70.

In the case of “HT-115 (large intestine, adherent, top dose 20 µM)”, the AUC was 0.989 and the pIC50 was under 4.70.

For “HT-144 (melanoma, adherent, top dose 20 µM)”, the AUC was 0.982 and the pIC50 was under 4.70.

Cell Line “HT-1080 (fibrosarcoma, adherent, top dose 20 µM)” has an AUC of 0.984 and a pIC50 of under 4.70.

In the case of “HT-1376 (bladder, adherent, top dose 20 µM)”, the AUC was 0.985 and the pIC50 was under 4.70.

Work on “HUTU-80 (digestive system, adherent, top dose 20 µM)” yielded an AUC of 0.982 and a pIC50 of under 4.70.

In the case of HeLa (cervix, adherent, top dose 20 µM), the AUC was 0.986 and the pIC50 was under 4.70.

Cell Line “Hep 3B2_1-7 (liver, adherent, top dose 20 µM)” has an AUC of 0.985 and a pIC50 of under 4.70.

“Hs633T (fibrosarcoma, adherent, top dose 20 µM)” gave an AUC of 0.992 and a pIC50 of under 4.70.

In the case of “Hs683 (glioma, adherent, top dose 20 µM)”, the AUC was 0.98 and the pIC50 was under 4.70.

“Hs766T (pancreas, adherent, top dose 20 µM)” showed an AUC of 0.984 and a pIC50 of under 4.70.

“Hs939-T (melanoma, adherent, top dose 20 µM)” was tested, and the AUC was 0.986 and the pIC50 was under 4.70.

In the case of “Hs-445 (Hodgkin lymphoma, suspension, top dose 20 µM)”, the AUC was 0.965 and the pIC50 was under 4.70.

“Hs-578-T (breast, adherent, top dose 20 µM)” was tested, and the AUC was 0.987 and the pIC50 was under 4.70.
